From PMC6212790 come the findings set out here.

Some of the results follow. At the low end of the ranking, values are background and their order means little.

This assay concerns the target T1, GST-Rok-C97-191 (UniProt O34857).
T1 sequence: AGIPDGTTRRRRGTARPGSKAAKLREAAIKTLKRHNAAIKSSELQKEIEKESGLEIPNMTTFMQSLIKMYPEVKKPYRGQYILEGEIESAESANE
The assay can be described thus: protein binding microarray.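 Further: rank score from −0.5 (least bound) to 0.5 (best bound).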 As to conditions: Rok is a gene silencer of Bacillus subtilis; high values mean tight binding; most listed sequences are background and not binding sites; double strand, one strand shown.
TGGAGACA showed a binding signal of -0.139 E-score.

Consider CATTTAGC, for which the binding signal was found to be 0.0299 E-score.

The sequence CAAACTCC yielded a binding signal of -0.063 E-score.

Consider GATTCCAA, for which the binding signal was -0.00566 E-score.

For ATTAACCA, the binding signal amounted to 0.134 E-score.

Sequence ATACGTAT had a binding signal of 0.213 E-score.

Turning to CCTAACAA, the binding signal is 0.0113 E-score.

CAGATTCA returned a binding signal of 0.0984 E-score.

AAACCGCT returned a binding signal of -0.0448 E-score.

AATGCGGG came in with a binding signal of -0.0708 E-score.

As to CTGTCACC, the binding signal is -0.164 E-score.

CGACCAGC yielded a binding signal of -0.129 E-score.

In the case of ACCTTCAT, the binding signal is -0.0551 E-score.

For the sequence TCTGCTAA, the binding signal was -0.0564 E-score.

With AGGGTGCC, the binding signal is -0.195 E-score.

As to CGCAGCAA, the binding signal was -0.241 E-score.

Sequence CGCCGGGA yielded a binding signal of -0.322 E-score.

On to CTCAGGAC, for which the binding signal is -0.165 E-score.

As for GGGAAATA, the binding signal worked out at 0.229 E-score.

As for ATCGAAGC, the binding signal is -0.00284 E-score.

Sequence GCGTACCC showed a binding signal of -0.00429 E-score.

ACCTACCT showed a binding signal of 0.154 E-score.

ACGGGCAA: the binding signal is -0.249 E-score.

GATATAGC yielded a binding signal of 0.0553 E-score.

Regarding AGTCTTCC, the binding signal was -0.0303 E-score.

Sequence CTAGAGGC showed a binding signal of -0.0875 E-score.

In turn, ATACGGGG had a binding signal of -0.0335 E-score.

On to CCCAGATA, for which the binding signal was determined as 0.147 E-score.

Turning to CGTACACC, the binding signal was -0.0472 E-score.

As to ACGGCCCC, the binding signal is -0.287 E-score.

In turn, AATATGGC came in with a binding signal of 0.116 E-score.

In turn, GCAGTGCC displayed a binding signal of -0.0131 E-score.

GCGATCAA yielded a binding signal of -0.158 E-score.

The sequence CATGGATC had a binding signal of 0.052 E-score.

Consider ATAACTAA, for which the binding signal turned out to be 0.249 E-score.

Take GGCATGCC: the binding signal was -0.492 E-score.

GGCCAGAA registered a binding signal of -0.00107 E-score.

Sequence AGGACCAG displayed a binding signal of -0.242 E-score.

Take GCACGTTA: the binding signal was 0.186 E-score.

ATAATAAC registered a binding signal of 0.287 E-score.

Regarding GAGACCCA, the binding signal was -0.0105 E-score.

With AGGGGAGG, the binding signal was -0.343 E-score.

ACAGGGAA returned a binding signal of 0.0404 E-score.

As for GACCGGCA, the binding signal is -0.072 E-score.

As for ACGTAAGG, the binding signal is -0.0369 E-score.

In turn, GTTTATAA returned a binding signal of 0.183 E-score.

GCTAGTGA: the binding signal turned out to be 0.0769 E-score.

In turn, GTTCCACA gave a binding signal of 0.0837 E-score.

Sequence AGCCGCGA registered a binding signal of -0.327 E-score.

Consider ACAAAACC, for which the binding signal is -0.0361 E-score.

In turn, CCCAAGAG yielded a binding signal of -0.161 E-score.

Regarding ATGAAGGA, the binding signal was -0.163 E-score.

On to AGAGGCAG, for which the binding signal was -0.241 E-score.

Take ACACCGTC: the binding signal was -0.0123 E-score.

With CCTCATTA, the binding signal was determined as 0.0758 E-score.

Consider TAAGTTAA, for which the binding signal was 0.214 E-score.

Sequence TAGCCTCA registered a binding signal of -0.0894 E-score.

ACTACTCT registered a binding signal of 0.19 E-score.

As to AAGACTAT, the binding signal was -0.0345 E-score.

In the case of ACCTCACT, the binding signal is -0.0237 E-score.

For AAATCGCG, the binding signal is 0.0688 E-score.

Take GCCGGGAC: the binding signal was -0.251 E-score.

As to CCGCACCG, the binding signal is -0.0859 E-score.

The sequence ACTGGTGG yielded a binding signal of -0.116 E-score.

CTGTCGGA had a binding signal of -0.0941 E-score.

The sequence CCACTCGC showed a binding signal of -0.161 E-score.

The sequence ATCGCGCC gave a binding signal of -0.129 E-score.

CTATGCAG had a binding signal of 0.12 E-score.

Sequence AGTATTTA had a binding signal of 0.301 E-score.

Regarding ACAACTAC, the binding signal came to 0.348 E-score.

ACGGGGTG registered a binding signal of -0.196 E-score.

As for CCGGCAAA, the binding signal is -0.103 E-score.

On to GCTCTAAC, for which the binding signal was -0.00406 E-score.

In turn, TACTCCGA came in with a binding signal of 0.111 E-score.

In turn, CGTTCTTC came in with a binding signal of -0.145 E-score.

CCCTAAGA yielded a binding signal of -0.0864 E-score.

As for GAATATTC, the binding signal was 0.339 E-score.

Sequence GGGTAGAC returned a binding signal of -0.0486 E-score.

In the case of AGAATCTG, the binding signal amounted to 0.0512 E-score.

Sequence AAAAGAAG came in with a binding signal of -0.0279 E-score.

Turning to ACACCAAG, the binding signal is -0.0851 E-score.

In turn, ATTCCTGA displayed a binding signal of 0.0117 E-score.

Turning to GACGGCTC, the binding signal was -0.197 E-score.

Sequence CGAGCTCG showed a binding signal of 0.00887 E-score.

Sequence CTACATCA returned a binding signal of 0.245 E-score.

ACCAGGAA showed a binding signal of -0.11 E-score.

The sequence CTCCCGTC yielded a binding signal of -0.318 E-score.

Sequence CTCCTGAC registered a binding signal of -0.229 E-score.

ACGCGCGG: the binding signal is -0.282 E-score.

For GTCAGAAA, the binding signal was found to be 0.0136 E-score.

As to AGTGACAG, the binding signal is -0.231 E-score.

In turn, AGCTACAT registered a binding signal of 0.368 E-score.

Sequence CCGATGCA displayed a binding signal of -0.0177 E-score.

The sequence GACTTGCA came in with a binding signal of -0.098 E-score.

Sequence CACTTTCG returned a binding signal of -0.028 E-score.

For GCAGACAA, the binding signal was -0.0758 E-score.

AACATTGT showed a binding signal of 0.123 E-score.

In turn, AACCCTAT showed a binding signal of 0.0077 E-score.

As to ACCGATGC, the binding signal is -0.073 E-score.

Sequence AGTGCAAT had a binding signal of 0.00284 E-score.

As to TCTCGGCA, the binding signal stood at 0.0742 E-score.

CTCAAAGC gave a binding signal of -0.0826 E-score.

For the sequence TCTCACAA, the binding signal came to 0.0734 E-score.

As to GGCTGACA, the binding signal is -0.0757 E-score.

In turn, GGTCCCCA had a binding signal of -0.315 E-score.

Consider ATAGAAAC, for which the binding signal is 0.326 E-score.

In turn, AATTCAGA returned a binding signal of 0.0892 E-score.

Take GACGAAAA: the binding signal was -0.0858 E-score.

The sequence CACCTCCG registered a binding signal of -0.126 E-score.

In turn, CAACCTAG returned a binding signal of -0.000582 E-score.

GACACATC gave a binding signal of -0.00281 E-score.

With AAGCGATA, the binding signal is 0.0708 E-score.

Turning to TCAGCGGA, the binding signal was -0.0224 E-score.

For the sequence CTGAAAAC, the binding signal is -0.108 E-score.

Turning to AAATGGGA, the binding signal is -0.015 E-score.

For the sequence AAAGACTC, the binding signal was -0.103 E-score.

Sequence GCGCGGAC registered a binding signal of -0.325 E-score.

In the case of ACTGAGAT, the binding signal stood at 0.00452 E-score.

Turning to ATTCCATA, the binding signal came out at 0.149 E-score.

GCTCGCTA: the binding signal amounted to 0.145 E-score.

For the sequence ACTCAAAA, the binding signal came to 0.114 E-score.

Take ACACTTTG: the binding signal is -0.0345 E-score.

In the case of ACCCCGCC, the binding signal is -0.27 E-score.

In turn, CCGGCACA returned a binding signal of -0.0406 E-score.

Take ACGAACAC: the binding signal is -0.011 E-score.

As to TAAAAGCA, the binding signal was determined as 0.167 E-score.

The sequence ATATGGCC yielded a binding signal of -0.0543 E-score.

The sequence AAGCTCTG yielded a binding signal of -0.273 E-score.

Sequence CGGTAGGC came in with a binding signal of 0.014 E-score.

In turn, GCTTACAC registered a binding signal of -0.028 E-score.

Sequence CCTTGGTC returned a binding signal of -0.143 E-score.

The sequence CACCTGGC displayed a binding signal of -0.158 E-score.

CTCACGTC displayed a binding signal of 0.053 E-score.

As to AGTGCTAT, the binding signal amounted to 0.0913 E-score.

For the sequence TAGGGCGA, the binding signal was 0.0402 E-score.

CACTGGCC returned a binding signal of -0.143 E-score.

TTGCTAAA displayed a binding signal of 0.164 E-score.

ACCAATCT had a binding signal of 0.317 E-score.

As to GAAAGTTC, the binding signal came to 0.04 E-score.

For the sequence ATGCCGAA, the binding signal came out at 0.0148 E-score.

As for CACTAGGG, the binding signal was -0.0403 E-score.

GTAACATA gave a binding signal of 0.18 E-score.

Turning to CAATGGGA, the binding signal is 0.041 E-score.

For the sequence CGGGATCA, the binding signal was -0.197 E-score.

For the sequence GGCAATGA, the binding signal came to 0.0108 E-score.

For AACTTGTA, the binding signal was 0.164 E-score.

AATATTCC displayed a binding signal of 0.106 E-score.

For CATTAAAA, the binding signal was -0.0737 E-score.

As to CGGCGCAC, the binding signal is -0.264 E-score.

In turn, GACTTAAA showed a binding signal of -0.0231 E-score.

AGCTTGAC: the binding signal is -0.0959 E-score.

GTAATCAA came in with a binding signal of 0.133 E-score.

CCCATAAA yielded a binding signal of 0.0363 E-score.

Sequence ACAGCAAC came in with a binding signal of 0.0658 E-score.

ACCAGCAG: the binding signal was -0.226 E-score.

For the sequence CAAATGGG, the binding signal was -0.0772 E-score.

The sequence CAGGGTGG gave a binding signal of -0.212 E-score.

In the case of AAATCCAC, the binding signal is -0.0171 E-score.

CTATCAAC: the binding signal turned out to be 0.151 E-score.

Sequence AACACCCA returned a binding signal of -0.114 E-score.

AAGACCTA yielded a binding signal of -0.0446 E-score.

In the case of CGGTGTAA, the binding signal turned out to be 0.00876 E-score.

In turn, AATGCCGA had a binding signal of -0.0405 E-score.

In turn, AGTGCGCG had a binding signal of -0.204 E-score.

GCGAGGAA showed a binding signal of -0.197 E-score.

The sequence CTCATAAG yielded a binding signal of -0.126 E-score.

TATCCATA returned a binding signal of 0.178 E-score.

Regarding TCGATTCA, the binding signal worked out at 0.0914 E-score.

For the sequence ATTATTTC, the binding signal was 0.215 E-score.

Consider CAGCGTTC, for which the binding signal is -0.283 E-score.

Take AATTGATG: the binding signal was found to be 0.176 E-score.

The sequence CGGGCTAA gave a binding signal of -0.128 E-score.
